Results from PubChem BioAssay AID485344 (National Center for Advancing Translational Sciences (NCATS), 2010).
About 6,900 (2%) of roughly 340,000 compounds were called active. Rule as the data show it: active = inhibition above about 30%; inactive = below that, where a call was filed. Only a part is listed here, and it is no random draw. The source gives no active or inactive call for entries shown without one.

target: D(2) dopamine receptor (Homo sapiens) (UniProt P14416); assay: HTS Assay for Allosteric Antagonists of the Human D2 Dopamine Receptor: Primary Screen for Antagonists; conditions: HEK293 TREx D2 cells, calcium flux, dopamine EC80; at 10 µM; stronger effect = higher value; also: 0% is about no effect
Summary of the method: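 Overnight-induced (tetracycline, 30 C) HEK293 T-REx cells carrying force-coupled D2 receive a no-wash calcium dye, then compound, then EC80 dopamine at 180 s; signals are read kinetically throughout.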

Sequence of UniProt P14416 (P14416 whole entry, looked up): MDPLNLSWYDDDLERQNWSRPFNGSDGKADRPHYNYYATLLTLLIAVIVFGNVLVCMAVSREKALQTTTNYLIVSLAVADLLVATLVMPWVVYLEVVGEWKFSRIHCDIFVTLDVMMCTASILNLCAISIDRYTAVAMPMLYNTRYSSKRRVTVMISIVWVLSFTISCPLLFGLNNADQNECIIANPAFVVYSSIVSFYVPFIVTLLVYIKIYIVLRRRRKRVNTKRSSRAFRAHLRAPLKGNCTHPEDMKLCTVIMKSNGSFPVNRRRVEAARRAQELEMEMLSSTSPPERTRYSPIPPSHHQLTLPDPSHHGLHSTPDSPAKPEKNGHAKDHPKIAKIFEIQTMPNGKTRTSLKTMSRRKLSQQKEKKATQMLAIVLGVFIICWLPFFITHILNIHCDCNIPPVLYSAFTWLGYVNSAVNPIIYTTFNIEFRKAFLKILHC

Compound | inhibition
CCOC(=O)c1ccc(N2C(=O)c3n[nH]c(-c4ccco4)c3C2c2ccccc2OC)cc1 (stereo unspecified) | -7.47%
COc1ccc(N(C)S(=O)(=O)c2ccc3c(c2)CCN3C(=O)CCC(=O)O)cc1 | -19.6%
Cc1ccc(NC(=O)Cn2c(=O)n(Cc3ccccc3)c(=O)c3c(C)c(C(=O)N(C)C)sc32)c(C)c1 | 7.5%
COc1ccc(NC(=O)c2ccco2)cc1NC(=O)c1ccccc1[N+](=O)[O-] | 4.47%
CCN1/C(=C/C=C/c2oc3ccc(-c4ccccc4)cc3[n+]2CC)Oc2ccc(-c3ccccc3)cc21 | active: 75.8%
CCN1CCc2c(sc(-n3cccc3)c2C(C)NC(=O)Nc2ccc(C(=O)OC)cc2)C1 (stereo unspecified) | 3.55%
COc1ccc(C)c2sc(N(Cc3cccnc3)C(=O)c3cccs3)nc12 | -16.5%
Cc1ccc(NC(=O)Cn2cc3c(n2)CCCC3)cc1Cl | 8.23%
COC(=O)c1c(C)oc2ccc(N(C(=O)c3ccncc3)S(=O)(=O)c3ccc(Br)cc3)cc12 | -8.07%
COc1ccc(CNC(=O)c2nn(C)c3c2CSc2ccccc2-3)cc1 | 15.2%
O=C(Nc1cccc(F)c1)c1cnc2sc(N3CCCC3)nn2c1=O | -6.05%
COc1cc(C2C=C(C(=O)O)Nc3ncnn32)ccc1O (stereo unspecified) | -4.39%
CCOc1ccc2c(c1)c(=O)c(C(=O)c1ccc(CC)cc1)cn2CC(=O)Nc1ccc2c(c1)OCCO2 | 20.8%
COc1cccc(NC(=O)Cn2c(=O)n(CCC(=O)NCc3ccccc3OC)c(=O)c3ccccc32)c1 | 0.925%
CCN(CC)CCOC(=O)c1ccc(NC(=O)CCCN2C(=O)/C(=C/c3cccs3)SC2=S)cc1 | active: 48.9%
COc1ccc(Cl)cc1NC(=O)Cn1c(=O)n2nc(-c3ccccc3)nc2c2ccccc21 | 2.67%
O=C(NCCc1cccs1)c1ccc(Cn2c(SCc3cccc(F)c3)nc3cccnc32)cc1 | -6.26%
CCNc1nc2c(c(=O)n(C)c(=O)n2C)n1Cc1ccc(F)cc1 | 4.18%
O=C(Cn1cc(C(=O)c2ccco2)c2ccccc21)Nc1ccccc1C(F)(F)F | 9.21%
Cc1ccc(CSC2=NC(C)(C)Nc3ccccc32)c(C)c1 | 8.82%
COc1ccc(-c2csc3ncnc(Nc4ccccc4)c23)cc1 | 6.96%

Compound | inhibition
Cc1ccccc1S(=O)Cc1ccc(C(=O)NCc2ccccc2Cl)o1 (stereo unspecified) | -14.8%
Fc1cccc(CN2CCc3nc(Nc4ccc5c(c4)OCCO5)ncc3C2)c1F | -1.14%
O=C(CSc1ccc2ccccc2c1)NCCc1ccc(O)c(O)c1 | active: 51.2%
CCOC(=O)c1c(-c2ccccc2)oc2ccc(OCc3ccccc3Br)cc12 | -5.03%
CCOc1ccccc1NC(=O)Cn1c(=O)oc2ccccc21 | 5.95%
COc1ccc(-c2noc(N3CCC(C(=O)N4CCN(c5cccc(OC)c5)CC4)CC3)n2)cc1 | 11.7%
COc1ccc(NC(=O)Cn2cc(C(=O)c3ccc(C)c(C)c3)c(=O)c3cc(OC)ccc32)cc1 | 0.454%
Clc1cccc(CNCCCSc2nnnn2-c2ccccc2)c1 | 14.9%
COC(=O)c1scc(-c2ccc(C)cc2)c1S(=O)(=O)Nc1cc(C)c(Cl)cc1OC | 3.6%
Cc1cccc(N2CCN(C(=O)CCS(=O)(=O)c3ccc4c(c3)CC(=O)N4C)CC2C)c1 (stereo unspecified) | 0.411%
Cc1ccc(NS(=O)(=O)c2ccc3c(c2)n(C)c(=O)n3C)c(C)c1 | 9.64%
CC(=O)N1CCN(c2csc3ccc(Cl)cc3c2=O)CC1 | 8.27%
CCCCOC(=O)c1ccc(NC(=O)c2ccc3c(c2)CCN3S(C)(=O)=O)cc1 | -24.7%
Cc1cccc(C(c2sc3nc(-c4ccco4)nn3c2O)N2CCOCC2)c1 (stereo unspecified) | -21.5%
Cc1cccc(CNC(=O)Cn2nc(C)c3nn(-c4ccc(Cl)cc4)c(C)c3c2=O)c1 | 2.87%
Cc1c(CNC2CCCCCC2)c(C(=O)O)c(C)n1Cc1cccc(Cl)c1 | -13.7%
Cc1ccccc1Nc1c(-c2c[nH]c3ccccc23)nc2ccc(Cl)cn12 | -8.62%
O=C(CSc1nc(Nc2ccccc2)c2ccccc2n1)c1ccc(Cl)cc1 | 3.48%
Cc1cc(C)cc(NC(=O)NCc2c(-n3cccc3)sc3c2CCCC3)c1 | 14.7%
CSc1ncc(Cl)c(C(=O)Nc2c(C(=O)c3ccc(Cl)cc3)oc3ccccc23)n1 | -17.1%
Cc1ccc(-n2ncc(C(=O)N3CCN(c4ccccc4F)CC3)c2C2CCN(C(=O)OC(C)(C)C)CC2)cc1C | -9.3%

Compound | inhibition
Cc1cccc(OC(=O)CSc2nnc(-c3cccs3)o2)c1C | 3.61%
Cc1c(NC(=O)Cc2ccc(Cl)cc2)cccc1-c1nc2cccnc2s1 | 3.3%
CCOC(=O)c1c(C)[nH]c(C)c1S(=O)(=O)NCC(=O)Nc1cccc(Cl)c1 | 4.35%
COc1ccc(OC)c(CCNC(=O)c2c(C)oc3ncn(C)c(=O)c23)c1 | 0.476%
CCOc1ccc(S(=O)(=O)N(CC(=O)NCCc2ccc(OC)c(OC)c2)c2ccccc2)cc1 | 2.25%
COc1ccc(NC(=O)CN2C(=O)CSc3ccc(S(=O)(=O)N4CCCC4)cc32)cc1OC | -9.99%
Cc1ccccc1Cn1c(CN2CCC(C(=O)NCCN(C)C)CC2)cc2ccccc21 | -0.0165%
Cc1ccccc1NC(=O)CN1C(=O)C(C)(C)c2ccccc21 | -0.062%
CCCCNC(=O)c1cnn2c(C)c(Cc3c(F)cccc3Cl)c(C)nc12 | 5.28%
COc1cccc(NC(=O)c2cc3c(=O)n(C)c4ccccc4c3n2C)c1 | 3.41%
Cc1ccc(CNC(=O)C2CCN(S(=O)(=O)c3ccc4c(c3)CCCN4C(=O)C3CCC3)CC2)cc1 | -0.852%
CCOc1ccc2c(c1)c(=O)c(S(=O)(=O)c1ccccc1)cn2CC(=O)Nc1ccccc1OC | 19.4%
Cc1nc(-c2ccccc2)sc1CCNS(=O)(=O)c1ccccc1 | 14.2%
O=C(NCCSc1c(-c2ccccc2)[nH]c2ccccc12)c1ccc(S(=O)(=O)N2CCOCC2)cc1 | 2.12%
O=C(O)c1cc(-c2ccc(C(F)(F)F)cc2)nc2n[nH]c(-c3ccccc3)c12 | -3.94%
CCc1ccc(S(=O)(=O)c2cn(CC)c3cc(N4CCOCC4)c(F)cc3c2=O)cc1 | -21.9%
CC(=O)c1ccc(NC(=O)Cn2cc3c(n2)CCCC3)cc1 | 3.78%
CCOc1ccc(CN2CCN(c3ncnc4sc5c(c34)CC(C)CC5)CC2)cc1 (stereo unspecified) | -8.25%
COc1cc(Cl)c(CC(=O)c2c[nH]c3ccccc23)cc1OC | active: 32.5%
